Source: PubChem BioAssay (NCI)
Where “and” joins values, the source holds several entries; their conditions need not be identical. Identical values can stand only once.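 Dose response: 5 concentrations. Exposure: 48 h. Format: 96-well plates. Endpoint: linear interpolation; highest concentration if not reached. At the GI50, growth is halved. TGI: concentration producing complete growth inhibition.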

tested on: NCI-H322M lung; test: DTP human tumour cell line panel, 48 h

Structure (SMILES)	GI50	TGI
COc1cc(C(=O)/C=C/c2c(C)n([O-])c3ccc(C)cc3[n+]2=O)cc(OC)c1OC	22.2 µM	57.2 µM
COc1ccc(C2CC(c3cc(OC)c(OC)c(OC)c3)=NO2)cc1OCCCCOc1cc2c(cc1OC)C(=O)N1CCC[C@H]1C=N2 (some centres undefined)	3.46 µM	11.5 µM
Cc1c(NC(=S)NN)c(=O)n(-c2ccccc2)n1C	–	> 100 µM
Cc1ccc([N+](=O)[O-])cc1NC(=O)Nc1cccc(F)c1	14.6 µM	> 100 µM
O=S(=O)(O)c1c(Cl)cc(O)c2ncccc12	–	> 100 µM
COc1ccc(/C=C2\CCC(C)C3=C(c4ccc(OC)c(OC)c4)C(C#N)=C(N)OC32)cc1OC (centres undefined)	–	> 100 µM
O=C1c2c(Cl)c(Cl)c(Cl)c(Cl)c2C(=O)N1CCN(c1c(Cl)ssc1=O)c1c(Cl)ssc1=O	–	> 100 µM
CC(=O)N[C@@H](Cc1ccc(OP(=O)(O)O)cc1)C(=O)N[C@H]1CCC(=O)N2CCC[C@@H](C(=O)NCc3ccc(Cl)cc3)N2C1=O	> 25 µM	> 25 µM
F	6100 µM	> 6870 µM
C=CCN1CCC(OC(=O)C(O)(C#CC)C2CCCC2)CC1 (centres undefined)	–	> 100 µM
Cc1ccc(S(=O)(=O)OC2CCN(C)CC2)cc1	–	> 100 µM
NC(=O)NNCc1ccccc1	–	> 100 µM
N#CN=C(N)c1sc2nc3c(c(-c4ccc(Br)cc4)c2c1N)CCCC3	–	68.2 µM
C=C(CN(C)C)C(=O)c1ccccc1C	–	> 100 µM
COc1ccc(C(=O)c2cc(OC)c(OC)c(OC)c2)cc1	–	> 83.2 µM
N#Cc1c(-c2ccccc2)nc(SCC2CO2)nc1N1CCOCC1 (centres undefined)	10 µM	> 100 µM
Cc1cccc(C(C)C)c1NC(=O)C(=O)CC(=O)c1sc(Nc2ccccc2Cl)nc1C	–	> 100 µM
C[N+](C)(C)CC1CCCC/C1=N\OC(=O)c1ccccc1 (centres undefined)	–	> 100 µM
C=CC[n+]1c(/C=C/C=C2\N(C)c3ccccc3C2(C)C)sc2ccc(OC)cc21	0.531 µM	13 µM
COc1cc(C2c3[nH]c4ccccc4c3C[C@H]3COC(=O)N23)cc(OC)c1OC (some centres undefined)	< 0.01 µM	> 100 µM
NC1=NC(=O)/C(=C/c2ccccc2[N+](=O)[O-])C(N)=N1	–	> 100 µM
O=C(OCc1ccccc1CN1CCOCC1)c1cccc(Br)c1	–	> 100 µM
CCOC(=O)c1ccc2[nH]c(-c3ccc(S(=O)(=O)F)cc3)cc(=O)c2c1	–	> 100 µM
O=C1c2ccccc2-c2c1c1ccccc1c(=O)n2CCCCNCCCn1c2c(c3ccccc3c1=O)C(=O)c1ccccc1-2	1.11 µM	4.32 µM

Structure (SMILES)	GI50	TGI
NCCNc1c2c(c(NCCN)c3c(CO)c[nH]c13)C(=O)c1ccccc1C2=O	5.38 µM	38.6 µM
CC(=O)[C@@H]1[C@@H](OC(=O)CCC(C)COC2OC(CO)C(O)C(O)C2O)C[C@H]2[C@@H]3CC=C4C[C@@H](OC5OC(CO)C(OC6OC(C)C(O)C(O)C6O)C(O)C5OC5OC(C)C(O)C(O)C5O)CC[C@]4(C)[C@H]3CC[C@]12C (some centres undefined)	–	> 100 µM
COC1=C2CC(C)CC(OC)C(O)C(C)/C=C(\C)C(OC(N)=O)C(OC)/C=C\C=C(/C)C(=O)NC(=C(C=NC(C)(C)C)C1=O)C2=O (centres undefined)	–	34.9 µM
CN(C)CCOc1ccc2[nH]c(C(=O)N3CC(CCl)c4c3cc(N)c3ccccc43)cc2c1 (centres undefined)	–	1.78 µM
C/C=C/[C@H]1O[C@@](O)([C@@H](C)[C@H](O)[C@H](C)[C@H]2OC(=O)/C(OC)=C/C(C)=C/[C@@H](C)[C@@H](O)[C@@H](CC)[C@@H](O)[C@H](C)C/C(C)=C/C=C/[C@@H]2OC)C[C@H](OC2CC(O)C(O)C(C)O2)[C@@H]1C (some centres undefined)	–	15.4 µM
O=C1/C(=C/c2ccccc2)CCCC1CN1CCCCC1 (centres undefined)	–	29.1 µM
CCc1ccc(N=Cc2cc(OC)c(OC)c(OC)c2)cc1	–	> 100 µM
CC[C@]1(O)C[C@H]2CN(CCc3c([nH]c4ccccc34)[C@@](C(=O)OC)(c3cc4c(cc3OC)N(C=O)[C@H]3[C@@](O)(C(=O)OC)[C@H](OC(C)=O)[C@]5(CC)C=CCN6CC[C@]43[C@@H]65)C2)C1	–	128 µM and 122 µM
NC(Cc1ccc(S(=O)(=O)O)cc1)C(=O)NC(CCCCNC(=O)NCCCCC(NC(=O)C(N)Cc1ccc(S(=O)(=O)O)cc1)C(=O)NC(Cc1ccc(S(=O)(=O)O)cc1)C(=O)O)C(=O)NC(Cc1ccc(S(=O)(=O)O)cc1)C(=O)O (centres undefined)	–	> 100 µM
CCSCC1CC(O)(c2ccccc2)C(c2ccccc2)C(c2ccc(Cl)cc2)O1 (centres undefined)	1.95 µM	5.16 µM
Cc1cc(N(CCC#N)CCC#N)ccc1/C(N=Nc1ccc(Cl)cc1)=N\NC(=O)c1cc(Cl)ccc1O	–	> 100 µM
CC1(C)CCC[C@@]2(C)C1CCC1(C)C(CCc3ccoc3)/C(=C/OS(=O)(=O)O)CCC12 (some centres undefined) (tested in a mixture with another compound)	–	> 100 µM
COc1cc2c3c(n(CCCN)c(=O)c2cc1OC)-c1ccccc1C3=O	0.577 µM	4.88 µM
CN(C)c1ccc(/C=c2/c3ccccc3n3c2c2ccccc2[n+]3C)cc1	–	7.81 µM
CCc1nc(N)nc(N)c1-c1ccc(NCCN)c([N+](=O)[O-])c1	–	> 100 µM
O=C(Nc1ccccc1-c1n[nH]c(=S)[nH]c1=O)C(F)(F)F	–	> 100 µM
CCCCON(OC(=O)c1ccccc1)C(=O)c1ccccc1	> 100 µM	> 100 µM
COc1cc(NS(C)(=O)=O)ccc1Nc1c2ccc([N+](=O)[O-])cc2nc2c(C)cccc12	5.23 µM	21.7 µM
COc1ccc(Oc2cccc(/C=C3/C(=O)Nc4ccccc43)c2)cc1	–	33.6 µM
CC[C@]12CCCN3CCc4c(n(c5ccccc45)C(=O)C1)[C@@H]32	–	> 100 µM
Nc1c(C(=O)c2cccc(CCCN3CCOCC3)c2)cnn1-c1ccc(F)cc1	> 25 µM	> 25 µM
CS/C(=N\C(=S)N(C)C)N(c1ccccc1)c1nc(=[N+](C)C)ss1	–	38 µM
Cc1ccc(S(=O)(=O)N[C@H](C(=O)O)c2ccccc2)cc1	–	> 100 µM
O=C(O)c1cc2ccccc2c(N=Nc2ccccc2)c1O	–	> 100 µM

Structure (SMILES)	GI50	TGI
NCC(=O)NC1(c2cc3ccccc3s2)CCCCC1	–	> 100 µM
CS(=O)(=O)c1ccc(/C=N/NC(N)=S)cc1	–	> 100 µM
COc1cccc2c1C(=O)C=CC2=O	–	29.3 µM
Brc1ccc2[nH]cc(-c3csc(-c4ccccn4)n3)c2c1	–	47.8 µM
C[C@@H]1COCCN1c1cc(C2([S@](C)(=N)=O)CC2)nc(-c2ccnc3[nH]ccc23)n1	1.54 µM and 1.47 µM	> 100 µM
CC1CC(C)C(O)C(C2CC(CC(=O)NC3CCCCC3)CC(=O)O2)C1 (centres undefined)	–	> 100 µM
Cc1ccc(S(=O)(=O)N2CCCN(S(=O)(=O)c3ccc(C)cc3)CCN(S(=O)(=O)c3ccc(C)cc3)CCCSCC2)cc1	–	> 100 µM
OC(c1cccc(-n2ccc(C(F)(F)F)n2)c1)c1cnccc1NC1CCCCCC1 (centres undefined)	1.58 µM	2.95 µM
COc1ccccc1/C=C/C1=NN(c2cccc(S(=O)(=O)O)c2)C2(C1)SCC(=O)N2c1nc2ccccc2s1 (centres undefined)	–	> 100 µM
COc1cc2c[n+](C)c3c4cc(OC)c(OC)cc4c(OC)cc3c2cc1OC	–	> 100 µM
O=[N+]([O-])c1ccc(S(=O)(=O)Cc2ccccc2)c([N+](=O)[O-])c1	–	32.7 µM
O=C(Nc1nnc(-c2ccccc2)o1)C(SC(=S)N1CCCCC1)c1ccccc1 (centres undefined)	–	64.4 µM
Cc1ccc(-c2nc(C)c(C(=O)Nc3ccc(Cl)cc3)s2)cc1	–	49.1 µM
CC1CC(C2=CC=CCS2)=Nc2ccccc2S1 (centres undefined)	–	> 100 µM
ClCCCN(CCCCl)c1ccc(C=Nc2cccc(Cl)c2)cc1	–	> 100 µM
CCNC(=O)[C@@H]1CCCN2C(=O)CC[C@H](NC(=O)[C@H](Cc3ccc(OP(=O)(O)O)cc3)NC(C)=O)C(=O)N12	> 25 µM	> 25 µM
CCCCCCCC1C(C)c2c([nH]c3ccccc23)C2C(=O)N(c3ccc(OC)cc3)C(=O)C21 (centres undefined)	–	> 10 µM
COc1ccc(/C=C2\CCCC(CN(C)C)C2=O)cc1 (centres undefined)	–	30.6 µM
Cc1c2c(c(C)n1-c1ccccc1)C(=O)N(CCCCN1CCN(c3ccccc3)CC1)C2=O	–	> 100 µM
CN(C)CCOc1ccc(-c2nc(-c3ccc4c(c3)CC/C4=N\O)c(-c3ccncc3)[nH]2)cc1	3.96 µM and 6.19 µM	7.96 µM and 19.6 µM
CCOc1ccccc1NC(=O)CC1C(=O)Nc2ccccc2S1=O (centres undefined)	–	> 100 µM
CC[C@]1(O)CC(OC2CC(N(C)C)C(O)C(C)O2)c2c(cc3c(c2O)C(=O)c2c(O)cccc2C3=O)[C@@H]1C(=O)OC (some centres undefined)	–	3.56 µM
COC(=O)CCC(=O)C(=O)OC	26500 µM	–
Nc1ccc2c(c1)C(=O)C(=O)c1c-2nc2ccccn12	2.06 µM	4.56 µM

Structure (SMILES)	GI50	TGI
Cc1cn(Cc2ccccc2CCO)c(=S)[nH]c1=O	–	> 100 µM
N=C(N)c1ccc(OCc2cccc(COc3ccc(C(=N)N)cc3)c2)cc1	14.6 µM	29.8 µM
COc1cc2c(cc1OC)-c1cc3ccccc3c[n+]1CC2	–	> 100 µM
COC(=O)c1c2c(cc3c1CC1(Cc4cc5c(c(C=O)c4C1)CCCC5)C3)CCCC2 (centres undefined)	–	> 100 µM
CCC1=NC(N/N=C/c2ccco2)=N/C1=C\c1ccccc1O	–	> 100 µM
CC(C)(C)OC1=C(OC(C)(C)C)C(O)(c2ccccc2)C1=O (centres undefined)	–	> 100 µM
C=CCOC(=O)N1[C@H]2C#C/C=C\C#C[C@]3(O)C(=O)C[C@H](C)[C@]24O[C@]43C2=CC(=O)C=CC21OC (some centres undefined)	–	> 100 µM
Oc1ccc(-c2csc(NNC3=NC/C(=C/c4ccc5c(c4)OCO5)S3)n2)cc1O	–	> 100 µM
COc1ccc(C2CC(=O)c3c(O)cc(O)cc3O2)cc1O (centres undefined)	–	> 100 µM
CC(C)/C=C1\CCC(CN2CCCC2)C1=O (centres undefined)	–	> 52.8 µM
O=C(NC1CCN(Cc2ccccc2)CC1)c1cc(-c2ccncc2)nc2ccc(Cl)cc12	37.9 µM	> 100 µM
O=C[C@@H](CO)O[C@H](C=O)c1c[nH]c(=O)[nH]c1=O	–	321 µM
NNC(=O)CSc1nc2ccc(I)cc2c(=O)n1Cc1ccccc1	–	61.9 µM
O=C(Nc1ccc(Cl)c(Cl)c1)c1cccc(NC2=C(Cl)C(=O)N(Cc3ccccc3)C2=O)c1	> 100 µM	> 100 µM
NCCSc1nc2ccccc2s1	–	> 100 µM
FC(F)(F)Oc1cccc(-c2cnc3ccc(-c4ccncc4)nn23)c1	1.44 µM	> 100 µM
CCC(C)n1c(C)nc2c1C(=O)c1ccccc1C2=O (centres undefined)	–	> 100 µM
CC(C)(C)c1cc(C(=O)Nc2cc(Br)c(Br)cc2S(N)(=O)=O)cc(C(C)(C)C)c1O	–	25.6 µM
N/C(=N\N=C/c1ccccc1O)NO	–	> 100 µM
O=C(Nc1cccc(-n2ccc3c(NC(=O)c4ccccc4)nccc32)c1)c1ccc(N2CCOCC2)c(C(F)(F)F)c1	0.0994 µM	> 100 µM
O=c1cc(NCCCCCO)[nH]c(=O)[nH]1	–	> 100 µM
CC1(C)CC23C4COC(=O)C2CCC1C3CC4=O (centres undefined)	–	78.8 µM
